# Results published in PubChem BioAssay AID1347073 (National Center for Advancing Translational Sciences (NCATS), 2019).
# In all, about 45,000 compounds went through this assay and about 200 (0.44%) were called active. Not shown: some 7% with an inconclusive outcome. The call rests on the fitted dose curve; in most records, active means well fitted activation curve with a large enough effect; inconclusive means small, poorly fitted or top-dose-only effect; inactive means no such curve, though single readings can be large or run the other way. The list shows a part of the results.
# Test: qHTS of TDP-43 Inhibitors: NCGC Sytravon Library Screen; further: nearly all actives have a fitted effect of over 55% in size; on growth rescue (activation): 0% is about no effect
# Details: yeast TDP-43 toxicity rescue, BacTiter-Glo growth, 24 h; series mostly up to 46.1 µM; growth rescue (activation): at the top concentration
# How it was run: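 TDP-43-expressing yeast, pregrown in raffinose, seeded at OD600 0.02 in galactose medium with compound for 24 hr at 30 deg C. Growth read by BacTiter-Glo luminescence, so rescue of toxicity appears as activation.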
# Potency means the concentration at half of the fitted maximal effect.
Compound,growth rescue (activation),Potency
COc1cc(CC(=O)OCC(=O)c2ccc(F)cc2)cc(OC)c1OC,inactive: 3.95%,–
O=C(CCCSc1nc2ccccc2s1)NCc1ccc2c(c1)OCO2,–,active: 12.6 µM
C/C(=N/NC(=O)c1cccnc1)C1=C(O)CC(C)(C)CC1=O,inactive: -10.8%,–
CN1CCN(C(=O)c2cccc(NS(=O)(=O)c3ccc(Br)cc3)c2)CC1,inactive: 17.4%,–
O=C1NC(c2ccc(-c3ccccc3[N+](=O)[O-])o2)C(C(=O)c2ccc(Cl)cc2)C(O)(C(F)(F)F)N1 (centres undefined),inactive: 7.15%,–
COc1ccc(C(=O)NCC(=O)N2CCN(C(=O)c3ccco3)CC2)cc1,inactive: 0.0093%,–
COc1ccc(C2C(C(=O)N3CCN(c4ccccn4)CC3)CCC(=O)N2c2cc(OC)c(OC)c(OC)c2)cc1 (centres undefined),inactive: 5.95%,–
CCOc1ccc(NC(=O)CC2C(=O)N(c3ccc(OCC)cc3)C(=S)N2C2CC2)cc1 (centres undefined),inactive: 15.8%,–
CCN(CC)Cc1c(C(=O)N/N=C/c2cccnc2)nnn1-c1nonc1N,inactive: -3.12%,–
CC(C)CCNC(=O)CN1C(=O)c2cccnc2Oc2ccccc21,inactive: 3.66%,–
COCCn1c(SCC(=O)NCc2ccc3c(c2)OCO3)nc2ccccc2c1=O,inactive: -1.84%,–
COc1ccc(CNC(=O)CCN2C(=O)c3ccccc3C2=O)cc1OC,inactive: 11.3%,–
CCn1nc(C)c(CNC(=O)CCc2nnc(-c3ccc(C(C)=O)s3)o2)c1C,inactive: 4.9%,–
Cc1cccc2sc(NC(=O)CN3C(=O)c4ccccc4C3=O)nc12,inactive: -10.6%,–
O=C(NCc1cccc(F)c1)Nc1nnc([C@@H]2C[C@H](O)[C@@H](CO)O2)s1,inactive: 4.19%,–
COc1ccc(/C=N/N(C)C2=NS(=O)(=O)c3ccccc32)cc1OC,inactive: 6.55%,–
Cc1ccc(F)cc1NC(=O)CSc1n[nH]c(N)n1,inactive: 22.9%,–
COc1cccc(CNC(=O)c2ccc3c(c2)N(Cc2ccc(C(F)(F)F)cc2)C(=O)c2ccccc2S3)c1OC,inactive: 3.5%,–
CCOC(=O)C1(CCCc2ccccc2)CCN(C(=O)C2CCCN(C(N)=O)C2)CC1 (centres undefined),inactive: 11.1%,–
CCC(=O)N(C)CCc1cc2c(c(OC)c1/C=N/NC(=O)c1ccccc1O)OCO2,inactive: 18.7%,–
CCN(C(=O)CSc1nnc(-c2ccco2)n1Cc1ccccc1)C1CCS(=O)(=O)C1 (centres undefined),inactive: -5.79%,–
CCSc1c(C(=O)NC)ccc2c1C(=O)c1ccccc1C2=O,inactive: -20.7%,–
Oc1ccc(N2Cc3ccccc3C2)cc1,inactive: -13.3%,–
CSCCC(NC(=O)c1ccccc1)C(=O)NCCc1ccccc1 (centres undefined),inactive: 16.3%,–
CN1CCN(C(=O)/C=C/c2ccc3c(c2)OCO3)CC1,inactive: 15%,–
Cc1sc2ncn(CC(=O)NCCCOC(C)C)c(=O)c2c1S(=O)(=O)N1CCN(c2ncccn2)CC1,inactive: -2.02%,–
Cc1c(C(=O)NCc2nnc(-c3ccccc3)o2)oc2c(F)cccc12,inactive: 8.11%,–

Compound,growth rescue (activation),Potency
CCN(CC)C(=O)Oc1ccc(Br)c2ccccc12,inactive: 26.7%,–
Cc1cc(C)c(OCC(=O)NCC2COc3ccccc3O2)c(C)c1 (centres undefined),inactive: 9.68%,–
COc1ccc(NC(=O)c2cc(C3CCCCN3S(=O)(=O)c3cccs3)on2)c(C)c1 (centres undefined),inactive: 20.3%,–
COc1ccc(S(=O)(=O)N(C)CC(=O)NCCCN2CCOCC2)cc1C,inactive: 4.14%,–
Nc1nc(C(F)(F)F)cc(=O)n1N,inactive: 0.235%,–
CSc1ccccc1NC(=O)CNCCCN1CCOCC1,inactive: -31%,–
CC(C)(C)C(=O)CSc1ncnc2sc3c(c12)CCC3,inactive: 25.4%,–
CC1(C)CC(=O)C(C(C2=C(O)CC(C)(C)CC2=O)c2ccc(O)c([N+](=O)[O-])c2)=C(O)C1,inactive: -5.28%,–
O=C(CN1CCN(C(=O)C2CC2)CC1)Nc1ccc(Cl)cc1F,inactive: 9.12%,–
Cc1nnc(SCSc2nnc(C)s2)s1,inactive: 5.59%,–
Cc1cc(C)nc(Nc2n[nH]c(C)n2)n1,inactive: -4.22%,–
CCOC(=O)c1ccc(Oc2coc3cc(O)ccc3c2=O)cc1,inactive: -0.294%,–
O=C(CNS(=O)(=O)c1ccccc1)OCc1cccc([N+](=O)[O-])c1,inactive: 10.5%,–
CCC(C)C(NC(N)=O)C(=O)Nc1ccc(C(=O)OC)cc1 (centres undefined),inactive: 9.13%,–
CS(=O)(=O)N1CCc2cc(C(=O)O)ccc21,inactive: -17.6%,–
CCOc1ccc(OCC)c(N=c2oc3c(C)ncc(CO)c3cc2C(N)=O)c1,inactive: 15.2%,–
Cc1ccc(-c2nnc(Nc3ccc4c(c3)OCO4)c3ccccc23)cc1S(=O)(=O)NCCO,inactive: -20.9%,–
O=C(c1cccs1)c1cn(CC(=O)N2CCc3ccccc3C2)c2ccccc12,inactive: -26.7%,–
CCOC(=O)c1cc(-c2ccc(N3CCOCC3)cc2)nn1-c1ccc(F)cc1F,inactive: 14.9%,–
O=C(CN1CCN(Cc2ccccc2)CC1)N/N=C/C=C/c1ccco1,inactive: -0.741%,–
NC(=O)COc1ccc2oc(-c3ccccc3)cc(=O)c2c1,inactive: 6.12%,–
CCOC(=O)/C(=C/c1ccc(OC)cc1)NC(=O)c1ccco1,inactive: 10.5%,–
O=C(OCC(=O)N1N=C(c2ccc(Cl)cc2)CC1c1ccco1)c1cncc(Br)c1 (centres undefined),inactive: 19.4%,–
COc1cc(NC(=S)NCc2ccc(S(N)(=O)=O)cc2)c(OC)cc1Cl,inactive: 7.88%,–
O=[N+]([O-])c1ccccc1/C=C/c1ccc2ccccc2n1,inactive: 10.2%,–
O=C(OC1CCOC1=O)c1cccc(S(=O)(=O)Nc2cccc(Cl)c2)c1 (centres undefined),inactive: 6.16%,–
CC(C)N(C(=S)Nc1ccc(S(=O)(=O)N2CCOCC2)cc1)c1ccccc1,inactive: -10.3%,–
